The campaign covered roughly 43,000 compounds. About 200 (0.47%) were called active. Inconclusive means that the source gave no clear call. Such entries were picked first, then a sample of the others. Calls come from the whole dose curve; as a rule, active = well fitted cell-killing curve with a large enough effect; inconclusive = small, poorly fitted or top-dose-only effect, or effect the other way; inactive = flat fitted curve, though single readings scatter. Where the call is inconclusive, the potency comes from a doubtful curve fit.
Test: Cell viability qHTS assay in S16 Pmp22-F2sN cells; note: nearly all actives have a fitted effect of over 65% in size
Details: S16 Pmp22-F2sN Schwann cells (luciferase reporters placed in the Pmp22 gene) viability, CellTiter-Glo, 24 h; series mostly up to 57.5 µM
In short: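 Rat S16 Schwann reporter line, 24 h treatment with library compounds delivered at 23 nL per well. Cell viability by CellTiter-Glo luminescence.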
Potency is the fitted concentration of half-maximal effect; tags give direction and shape of the fitted curve.

Row | Structure (SMILES) | Potency
1 | CCCN(C(=O)c1cc2c(s1)-c1ccccc1OC2)c1ccccc1F | inactive
2 | CCC1CCCCN1C(=O)c1ccc2c(c1)N(Cc1cccc(Cl)c1)C(=O)c1ccccc1S2(=O)=O (configuration not stated) | inconclusive: 28.2 µM [cytotoxic, single point]
3 | O=C(CCC1N=C2c3ccccc3N=C(SCc3ccccc3F)N2C1=O)NC1CCCCC1 (configuration not stated) | inconclusive: 28.2 µM [cytotoxic, single point]
4 | CCOC(=O)C1CCCN(S(=O)(=O)c2ccc3c(c2)CCCN3C(C)=O)C1 (configuration not stated) | inconclusive: 39.8 µM [cytotoxic, single point]
5 | CCc1nn(CC(=O)NCCCN(CC)CC)c(=O)c2cc3sc(C)cc3n12 | inconclusive: 0.501 µM [rising, full curve, poor fit]
6 | COc1ccccc1-c1noc(-c2ccc(N3CCC(C)CC3)c([N+](=O)[O-])c2)n1 | inconclusive: 10 µM [cytotoxic, partial curve, poor fit]
7 | CCOc1ccc(-c2cc(OC(=O)c3ccc(F)cc3)c3c(C)oc(C)c3c(=O)c2)cc1 | inconclusive: 28.2 µM [cytotoxic, partial curve, poor fit]
8 | CCN1C(=O)c2ccccc2Sc2ccc(NC(C)=O)cc21 | inconclusive: 35.5 µM [cytotoxic, single point]
9 | COc1ccc(NC(=O)CCc2c(C)nn(-c3ccc(N4CCOCC4)nn3)c2C)cc1Cl | inconclusive: 22.4 µM [rising, partial curve, poor fit]
10 | CCN(CC)CCCNC(=O)c1oc2c(c1C)-c1nn(Cc3ccc(Cl)cc3)cc1CC2 | inconclusive: 39.8 µM [cytotoxic, single point]
11 | CCOc1ccc(C2c3c(-c4ccccc4O)n[nH]c3C(=O)N2Cc2ccncc2)cc1 (configuration not stated) | inconclusive: 28.2 µM [cytotoxic, single point]
12 | CCc1ccc(C(=O)c2cn(CC(=O)Nc3ccc(F)cc3)c3cc4c(cc3c2=O)OCO4)cc1 | inconclusive: 0.02 µM [cytotoxic, full curve, poor fit]
13 | Cc1ccc(C)c(N2CCN(C(=O)CN3C(=O)CSc4c3c(C)nn4-c3ccccc3)CC2)c1 | inconclusive: 0.316 µM [cytotoxic, full curve, poor fit]
14 | Cc1ccc(NC(=O)CSc2nc3ccccc3c3nc(CCn4c(C)nc5ccccc54)nn23)cc1F | inconclusive: 39.8 µM [cytotoxic, single point]
15 | NC(=O)c1cc(S(=O)(=O)NCC2CCC(C(=O)Nc3cccc(Cl)c3)CC2)cs1 (configuration not stated) | inconclusive: 8.91 µM [cytotoxic, full curve, poor fit]
16 | CCCc1nnc(NC(=O)c2nc(S(=O)(=O)Cc3ccc(C)cc3)ncc2Cl)s1 | inconclusive: 39.8 µM [cytotoxic, single point]
17 | CN(C(=O)CSc1cn(CC(=O)N2CCCCC2)c2ccccc12)c1ccccc1 | inconclusive: 7.94 µM [rising, full curve, poor fit]
18 | O=C(Cc1ccc(F)cc1)N1CCC(c2nc3c(nnn3Cc3ccc(Cl)cc3)c(=O)[nH]2)CC1 | inconclusive: 22.4 µM [cytotoxic, single point]
19 | Cc1ccc(CCNC(=O)C2CCCN(Cc3nc(-c4cccc(Cl)c4)oc3C)C2)cc1 (configuration not stated) | inconclusive: 35.5 µM [cytotoxic, single point]

Row | Structure (SMILES) | Potency
20 | Cc1ccc2nc(-c3ccccn3)c(Nc3ccc(F)cc3)n2c1 | inconclusive: 10 µM [cytotoxic, partial curve]
21 | C=CCc1c(C)nc2nc(SCC(=O)Nc3ccccc3CC)nn2c1C | inconclusive: 10 µM [rising, partial curve, poor fit]
22 | CC(C)Cc1nn2c(=O)cc(COC(=O)c3cccc(NC(=O)CCc4ccccc4)c3)nc2s1 | inconclusive: 0.0178 µM [cytotoxic, full curve, poor fit]
23 | CCCOc1ccccc1C(=O)N1CCC(c2nc3ccccc3s2)CC1 | inconclusive: 39.8 µM [cytotoxic, single point]
24 | COc1ccc(NC(=O)CSc2nnc(-c3ccc(C)cc3)o2)cc1 | inactive
25 | CCOC(=O)c1noc2ncnc(N3CCN(c4ccccc4OC)CC3)c12 | inconclusive: 22.4 µM [rising, single point]
26 | Cc1ccc(CN2CCC(CNc3ncnc4onc(-c5ccc(Cl)cc5)c34)CC2)cc1 | inconclusive: 39.8 µM [cytotoxic, single point]
27 | COc1ccc(-c2nc3c(C#N)c[nH]n3c2NC2CCCCC2)c(OC)c1 | inconclusive: 14.1 µM [cytotoxic, partial curve]
28 | O=S(=O)(NCCc1csc(-c2ccc(F)cc2)n1)c1ccc(Cl)cc1 | inconclusive: 39.8 µM [cytotoxic, single point]
29 | O=C(CSc1nccn1Cc1ccc(Cl)cc1)NC1CCCC1 | inconclusive: 28.2 µM [cytotoxic, partial curve, poor fit]
30 | Cc1ccc(CN2CCSc3ccc(C(=O)N4CCN(c5cccc(C)c5C)CC4)cc32)cc1 | inconclusive: 15.8 µM [cytotoxic, partial curve, poor fit]
31 | COc1ccc(-c2cnc(C)o2)cc1S(=O)(=O)Nc1ccc(C)c(F)c1 | inconclusive: 2.51 µM [cytotoxic, single point]
32 | O=c1c2sc3ccccc3c2n(Cc2ccccc2)c(=O)n1Cc1ccccc1 | inconclusive: 0.708 µM [rising, full curve, poor fit]
33 | Cc1ccc(NC(=O)N2CCC(n3c(C)nc4cccnc43)CC2)c(Cl)c1 | inconclusive: 0.631 µM [cytotoxic, full curve]
34 | Cc1ccc(C)c(NC(=O)c2ccc3c(c2)CCCN3S(C)(=O)=O)c1 | inactive
35 | Cc1cc(C)cc(NC(=O)N2CCC(CN3CCCCCC3)CC2)c1 | inconclusive: 3.55 µM [rising, partial curve, poor fit]
36 | CC(=O)N1CCc2c(sc3c2c(=O)n(Cc2ccccc2)c(=O)n3Cc2ccccc2F)C1 | inconclusive: 39.8 µM [cytotoxic, single point]
37 | CCS(=O)(=O)N1CCc2cc(C(=O)N3CCN(c4ccccc4OC)CC3)ccc21 | inactive

— PubChem BioAssay AID1508642 (National Center for Advancing Translational Sciences (NCATS), 2021)
